No constants are given. Whether binding was seen depends on the method and setting. For part of these data: In cells and extracts the contact can be indirect. Some binding calls cover weakened binding; strength is not graded here. For part of these data: Sequences can lack the tags named with a protein.
Assays:
[1] = molecular target: T1, recombinant GST-RSF1 of Fig. 1g (human) (UniProt Q96T23); assay: pull-down; recombinant GST-RSF1 proteins immobilised, incubated with Myc-PLK1 or Flag-PLK1 expressing mitotic lysates; immunoblotting; only the target purified
T1 sequence: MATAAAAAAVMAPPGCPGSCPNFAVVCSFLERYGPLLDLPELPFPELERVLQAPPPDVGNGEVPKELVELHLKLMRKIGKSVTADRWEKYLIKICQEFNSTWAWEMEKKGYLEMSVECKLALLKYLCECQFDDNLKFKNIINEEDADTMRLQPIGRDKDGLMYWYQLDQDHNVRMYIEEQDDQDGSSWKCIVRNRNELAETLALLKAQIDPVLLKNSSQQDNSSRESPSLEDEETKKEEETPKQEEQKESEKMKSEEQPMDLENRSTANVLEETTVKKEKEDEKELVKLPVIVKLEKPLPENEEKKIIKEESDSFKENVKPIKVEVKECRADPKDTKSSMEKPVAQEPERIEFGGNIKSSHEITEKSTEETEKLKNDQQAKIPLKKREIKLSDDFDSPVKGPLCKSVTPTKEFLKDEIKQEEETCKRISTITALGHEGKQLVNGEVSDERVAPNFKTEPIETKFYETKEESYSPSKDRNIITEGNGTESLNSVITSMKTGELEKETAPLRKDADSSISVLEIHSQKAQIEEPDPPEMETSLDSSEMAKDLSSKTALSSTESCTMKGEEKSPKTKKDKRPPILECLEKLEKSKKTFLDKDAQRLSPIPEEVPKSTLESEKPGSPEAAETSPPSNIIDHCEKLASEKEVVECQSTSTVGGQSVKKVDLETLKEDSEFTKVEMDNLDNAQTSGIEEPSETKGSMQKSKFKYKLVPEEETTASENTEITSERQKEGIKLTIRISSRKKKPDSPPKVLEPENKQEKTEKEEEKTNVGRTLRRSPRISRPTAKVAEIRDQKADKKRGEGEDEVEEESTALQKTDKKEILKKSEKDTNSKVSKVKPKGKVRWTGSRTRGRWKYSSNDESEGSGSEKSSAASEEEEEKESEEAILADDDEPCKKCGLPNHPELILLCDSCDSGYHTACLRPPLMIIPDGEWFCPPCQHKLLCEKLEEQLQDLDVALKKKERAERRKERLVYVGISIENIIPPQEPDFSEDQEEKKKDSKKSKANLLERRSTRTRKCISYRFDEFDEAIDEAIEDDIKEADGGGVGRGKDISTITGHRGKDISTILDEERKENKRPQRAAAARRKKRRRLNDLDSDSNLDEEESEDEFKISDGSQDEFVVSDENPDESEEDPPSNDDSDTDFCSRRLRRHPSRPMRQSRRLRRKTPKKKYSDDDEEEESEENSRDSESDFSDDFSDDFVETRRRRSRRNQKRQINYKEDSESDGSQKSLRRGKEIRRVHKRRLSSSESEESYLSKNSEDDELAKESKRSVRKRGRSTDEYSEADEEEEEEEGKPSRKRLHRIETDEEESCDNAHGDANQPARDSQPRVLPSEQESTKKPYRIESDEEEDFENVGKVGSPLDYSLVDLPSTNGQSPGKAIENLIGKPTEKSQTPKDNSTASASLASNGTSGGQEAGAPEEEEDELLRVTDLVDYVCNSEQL

Amino acid sequences for entries named in this document (tags omitted).
UniProt O60264: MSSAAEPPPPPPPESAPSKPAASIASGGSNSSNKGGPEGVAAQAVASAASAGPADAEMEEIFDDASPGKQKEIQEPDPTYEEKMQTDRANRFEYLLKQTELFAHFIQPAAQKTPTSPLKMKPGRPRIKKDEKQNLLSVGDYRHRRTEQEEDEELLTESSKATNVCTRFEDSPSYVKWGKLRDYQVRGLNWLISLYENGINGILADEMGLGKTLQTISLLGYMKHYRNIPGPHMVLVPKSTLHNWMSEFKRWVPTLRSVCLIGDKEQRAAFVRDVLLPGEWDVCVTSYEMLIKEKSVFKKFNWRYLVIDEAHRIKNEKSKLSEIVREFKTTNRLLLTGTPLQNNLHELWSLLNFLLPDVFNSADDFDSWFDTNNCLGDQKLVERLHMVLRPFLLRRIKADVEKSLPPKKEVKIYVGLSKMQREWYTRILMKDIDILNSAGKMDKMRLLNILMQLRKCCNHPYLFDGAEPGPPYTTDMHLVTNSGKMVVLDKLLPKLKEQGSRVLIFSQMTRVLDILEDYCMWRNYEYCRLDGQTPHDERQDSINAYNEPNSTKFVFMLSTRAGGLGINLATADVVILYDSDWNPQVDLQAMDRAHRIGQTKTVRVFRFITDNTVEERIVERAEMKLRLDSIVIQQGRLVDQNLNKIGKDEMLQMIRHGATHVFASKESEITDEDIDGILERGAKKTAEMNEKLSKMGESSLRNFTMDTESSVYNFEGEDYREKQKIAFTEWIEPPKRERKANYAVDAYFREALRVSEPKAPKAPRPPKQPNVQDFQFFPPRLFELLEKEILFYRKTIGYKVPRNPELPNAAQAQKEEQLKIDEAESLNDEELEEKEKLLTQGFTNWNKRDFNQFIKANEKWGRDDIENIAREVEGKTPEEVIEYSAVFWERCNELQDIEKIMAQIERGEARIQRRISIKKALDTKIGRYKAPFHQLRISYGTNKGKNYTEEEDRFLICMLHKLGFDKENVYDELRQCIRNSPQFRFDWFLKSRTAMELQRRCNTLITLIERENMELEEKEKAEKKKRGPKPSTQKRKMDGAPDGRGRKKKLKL

[2] = molecular target: T2, recombinant GST-RSF1-C2 (amino acids 982-1441) (human) (UniProt Q96T23); assay: as above
T2 sequence: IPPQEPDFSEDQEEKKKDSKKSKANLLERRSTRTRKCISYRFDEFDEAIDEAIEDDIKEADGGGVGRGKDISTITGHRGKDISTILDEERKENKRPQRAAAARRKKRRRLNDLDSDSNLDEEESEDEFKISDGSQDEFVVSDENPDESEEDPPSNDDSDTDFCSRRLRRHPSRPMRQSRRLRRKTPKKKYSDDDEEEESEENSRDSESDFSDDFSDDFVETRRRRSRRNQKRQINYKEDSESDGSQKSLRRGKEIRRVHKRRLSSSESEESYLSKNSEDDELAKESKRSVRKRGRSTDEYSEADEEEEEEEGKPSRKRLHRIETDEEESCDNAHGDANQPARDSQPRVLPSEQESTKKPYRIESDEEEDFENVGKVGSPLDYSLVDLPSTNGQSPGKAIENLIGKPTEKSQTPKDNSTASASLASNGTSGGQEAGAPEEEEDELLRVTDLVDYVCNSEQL

[3] = molecular target: T3, recombinant GST-RSF1-N2 (amino acids 1-871) (human) (UniProt Q96T23); assay: as above
T3 sequence: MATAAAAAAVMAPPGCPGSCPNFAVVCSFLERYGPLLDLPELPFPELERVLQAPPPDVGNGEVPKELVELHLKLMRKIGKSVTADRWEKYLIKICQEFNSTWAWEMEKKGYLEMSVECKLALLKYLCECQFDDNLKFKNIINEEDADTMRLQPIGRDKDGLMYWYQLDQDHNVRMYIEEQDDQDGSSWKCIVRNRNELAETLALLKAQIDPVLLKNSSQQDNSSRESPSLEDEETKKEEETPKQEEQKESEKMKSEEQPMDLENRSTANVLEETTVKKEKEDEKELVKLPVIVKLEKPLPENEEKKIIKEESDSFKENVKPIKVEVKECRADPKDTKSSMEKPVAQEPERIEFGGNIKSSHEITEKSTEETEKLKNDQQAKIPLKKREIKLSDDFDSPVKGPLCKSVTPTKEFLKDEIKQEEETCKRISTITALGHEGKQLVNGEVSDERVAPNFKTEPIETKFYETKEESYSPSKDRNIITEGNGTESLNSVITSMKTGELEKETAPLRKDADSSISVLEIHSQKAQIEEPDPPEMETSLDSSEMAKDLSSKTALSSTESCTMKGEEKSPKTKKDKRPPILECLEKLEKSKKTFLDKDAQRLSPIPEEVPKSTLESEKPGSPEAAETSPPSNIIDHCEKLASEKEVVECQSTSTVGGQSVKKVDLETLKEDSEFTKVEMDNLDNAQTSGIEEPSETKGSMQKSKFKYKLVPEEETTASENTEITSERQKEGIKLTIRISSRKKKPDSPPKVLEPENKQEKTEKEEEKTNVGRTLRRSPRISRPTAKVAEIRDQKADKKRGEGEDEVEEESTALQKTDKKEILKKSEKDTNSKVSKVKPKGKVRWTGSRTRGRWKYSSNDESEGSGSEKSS

[4] = molecular target: endogenous PLK1 (human (endogenous in HeLa)) (UniProt P53350); assay: co-IP; RSF1 KO HeLa cell extracts
[5] = molecular target: PLK1 of the pull-down in Supplementary Fig. 2d (UniProt P53350); assay: pull-down; pull-down of Supplementary Fig. 2d; format not given
[6] = molecular target: T4, HA-tagged Aurora B, Q96GD4; assay: pull-down; in vitro binding assay: Myc-, HA- or Flag-tagged protein immunopurified from mitosis-enriched HEK293T cells and immobilised on beads, incubated with recombinant RSF1-V5 for 2 h at 4 °C; bound RSF1-V5 detected by immunoblotting; both purified; details: remark: other sources report otherwise
T4 chain: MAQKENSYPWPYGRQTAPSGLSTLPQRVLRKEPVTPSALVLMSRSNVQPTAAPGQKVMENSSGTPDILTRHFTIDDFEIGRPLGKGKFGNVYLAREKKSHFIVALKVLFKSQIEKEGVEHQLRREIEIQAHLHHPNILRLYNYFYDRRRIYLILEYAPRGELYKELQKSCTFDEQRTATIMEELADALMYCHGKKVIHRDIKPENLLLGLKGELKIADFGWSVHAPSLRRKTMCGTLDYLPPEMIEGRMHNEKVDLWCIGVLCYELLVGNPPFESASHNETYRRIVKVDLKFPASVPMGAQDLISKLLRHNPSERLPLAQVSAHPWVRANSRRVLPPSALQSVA

Molecule: Flag-tagged PLK1 wild type (from UniProt P53350 1-603)
- binding [1]: binds

Molecule: Myc-tagged PLK1 (from UniProt P53350 1-603)
- binding [2]: binds
- binding [3]: no binding

Molecule: SNF2H in RSF1 KO HeLa cell extracts (from UniProt O60264 1-1052)
- binding [4]: no binding

Molecule: SNF2H of the pull-down in Supplementary Fig. 2d (from UniProt O60264 1-1052)
- binding [5]: no binding

B1: recombinant V5-tagged full-length RSF1, Q96T23 1-1441 (protein)
chain: MATAAAAAAVMAPPGCPGSCPNFAVVCSFLERYGPLLDLPELPFPELERVLQAPPPDVGNGEVPKELVELHLKLMRKIGKSVTADRWEKYLIKICQEFNSTWAWEMEKKGYLEMSVECKLALLKYLCECQFDDNLKFKNIINEEDADTMRLQPIGRDKDGLMYWYQLDQDHNVRMYIEEQDDQDGSSWKCIVRNRNELAETLALLKAQIDPVLLKNSSQQDNSSRESPSLEDEETKKEEETPKQEEQKESEKMKSEEQPMDLENRSTANVLEETTVKKEKEDEKELVKLPVIVKLEKPLPENEEKKIIKEESDSFKENVKPIKVEVKECRADPKDTKSSMEKPVAQEPERIEFGGNIKSSHEITEKSTEETEKLKNDQQAKIPLKKREIKLSDDFDSPVKGPLCKSVTPTKEFLKDEIKQEEETCKRISTITALGHEGKQLVNGEVSDERVAPNFKTEPIETKFYETKEESYSPSKDRNIITEGNGTESLNSVITSMKTGELEKETAPLRKDADSSISVLEIHSQKAQIEEPDPPEMETSLDSSEMAKDLSSKTALSSTESCTMKGEEKSPKTKKDKRPPILECLEKLEKSKKTFLDKDAQRLSPIPEEVPKSTLESEKPGSPEAAETSPPSNIIDHCEKLASEKEVVECQSTSTVGGQSVKKVDLETLKEDSEFTKVEMDNLDNAQTSGIEEPSETKGSMQKSKFKYKLVPEEETTASENTEITSERQKEGIKLTIRISSRKKKPDSPPKVLEPENKQEKTEKEEEKTNVGRTLRRSPRISRPTAKVAEIRDQKADKKRGEGEDEVEEESTALQKTDKKEILKKSEKDTNSKVSKVKPKGKVRWTGSRTRGRWKYSSNDESEGSGSEKSSAASEEEEEKESEEAILADDDEPCKKCGLPNHPELILLCDSCDSGYHTACLRPPLMIIPDGEWFCPPCQHKLLCEKLEEQLQDLDVALKKKERAERRKERLVYVGISIENIIPPQEPDFSEDQEEKKKDSKKSKANLLERRSTRTRKCISYRFDEFDEAIDEAIEDDIKEADGGGVGRGKDISTITGHRGKDISTILDEERKENKRPQRAAAARRKKRRRLNDLDSDSNLDEEESEDEFKISDGSQDEFVVSDENPDESEEDPPSNDDSDTDFCSRRLRRHPSRPMRQSRRLRRKTPKKKYSDDDEEEESEENSRDSESDFSDDFSDDFVETRRRRSRRNQKRQINYKEDSESDGSQKSLRRGKEIRRVHKRRLSSSESEESYLSKNSEDDELAKESKRSVRKRGRSTDEYSEADEEEEEEEGKPSRKRLHRIETDEEESCDNAHGDANQPARDSQPRVLPSEQESTKKPYRIESDEEEDFENVGKVGSPLDYSLVDLPSTNGQSPGKAIENLIGKPTEKSQTPKDNSTASASLASNGTSGGQEAGAPEEEEDELLRVTDLVDYVCNSEQL
- binding [6]: no binding

Source: publication PMC4918322
